Measured values published in PubChem BioAssay (NCI).
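Results reflect a 48-hour exposure of cells in 96-well plates to compound at five concentrations. GI50 = concentration required for 50% inhibition of growth. The concentration for full growth arrest is given as TGI.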 Peptide text beside a SMILES is read from it. * marks the point of attachment. Fmoc = O=C(OCC1c2ccccc2-c2ccccc21)*; Boc = CC(C)(C)OC(=O)*

tested on: NCI-H322M lung; test: NCI tumour cell line growth inhibition, 48 h

SMILES	TGI [µM]	GI50 [µM]
Cc1cccnc1/N=C/c1c(O)n(C)c(=O)[nH]c1=O	> 100	–
COc1ccc(C(SCCO)(c2ccccc2)c2ccccc2)cc1	29.8	–
C=C1CCC2C(C)(C)CCC[C@]2(C)[C@H]1CO (some centres not stated)	> 100	> 100
O=C(Nc1ccccc1)NS(=O)(=O)c1ccc(-n2nc3c(c2-c2ccc(Cl)cc2)Cc2ccccc2-3)cc1	> 100	25.3
Cc1cc(N(CCNc2ccnc3cc(Cl)ccc23)Cc2ccco2)nc(Cl)n1	3.12	1.67
CN1C(=O)[C@@H]2[C@@H]3c4ccccc4N(S(=O)(=O)C(F)(F)F)[C@@H]3c3[nH]c4ccccc4c3[C@@H]2C1=O	> 100	–
C1CCN(c2nc(=[N+]3CCCCC3)ss2)CC1	> 100	–
CSc1ccc(NC(=S)NN(C)C)cc1	> 10	–
CC(C)(C)OC(=O)NCCCCC(NC(=O)OCC1c2ccccc2-c2ccccc21)C(=O)N1CCCC1C(=O)NCC(N)=O (stereo not drawn) (Fmoc-Lys(Boc)-Pro-Gly-NH2; configuration not given here)	> 100	–
N#CCCC1(CCC#N)CCCCCCCCC(CCC#N)(CCC#N)C(=O)C1=O	> 100	–
N#CSCC1CC(O)(c2ccccc2)CC(c2ccc(F)cc2)O1 (configuration not stated)	14	3.3
O=C(Cc1nccc2c1[nH]c1ccccc12)OC1C#CCSCC#C/C=C\1 (configuration not stated)	> 100	–
CC1(Cl)CCC2(CC(Br)=CC3OC32C)CC1Br (configuration not stated)	> 100	–
COc1cc(O)c(C(=O)/C=C/c2ccc(O)cc2)c(O)c1[C@@H]1C[C@H](CCc2ccc(O)cc2)O[C@H](c2ccc(O)cc2)C1	18.2	5.32
O=C(Cc1nc2ccccc2s1)Nc1cccc(C(F)(F)F)c1	27.3	–
C[C@@H](CO)[C@@H]1CCC=C2CC[C@]3(C)[C@H](CC[C@@H]4[C@@]5(C)CCCNC(C)(C)[C@@H]5CC[C@]43C)[C@H]21	12.7	3.55
COc1cc(OC)c(/C=C/c2cnc3ccccc3n2)c(OC)c1	> 10	–
c1cc(CNCCN2CCNCC2)ccn1	> 100	–

SMILES	TGI [µM]	GI50 [µM]
CCCCS(=O)(=O)CCC(N)C(=O)O (configuration not stated)	> 100	–
CS(=O)(=O)N(N(CCCl)S(=O)(=O)c1ccccc1)S(C)(=O)=O	> 100	–
C[C@]1(CO)CCC[C@@]2(C)C1CC[C@H]1CC3C[C@]12CC[C@]3(C)O (some centres not stated)	> 100	–
CC(C)(C)c1cc(C2=NN(c3ccccc3)C(c3ccccc3)C2)cc(C(C)(C)C)c1O (configuration not stated)	> 100	–
c1ccc2c(c1)ncn2C1CCCCO1 (configuration not stated)	> 100	–
Cc1cc(Cc2c(F)c(F)c(C(c3cc(C)no3)c3c(F)c(F)c(F)c(F)c3F)c(F)c2F)on1 (configuration not stated)	> 100	–
O=c1oc2cc(O)ccc2c(O)c1C(c1cccnc1)c1c(O)c2ccc(O)cc2oc1=O	> 100	–
N#Cc1c(N)sc2c1-c1ccccc1OC2	> 100	–
Cc1ccc(S(=O)(=O)OCC23CCC(CC2)C2CC23)cc1 (configuration not stated)	> 100	–
COC(=O)/C=C/c1ccc2c(c1)CC1(C2)Cc2cc3c(cc2C1=O)CCC3 (configuration not stated)	> 100	–
COc1ccc(/C=C2\N=C(c3ccccc3)N(N=C3NC(=O)CC(=O)N3)C2=O)cc1	> 100	–
COC(=O)C1=C(O)C(C(=O)OC)[C@]2(O)[C@H](C(=O)OC)[C@H]1C[C@@H](c1c(Cl)cccc1Cl)[C@H]2C(=O)OC (some centres not stated)	18.4	–
CCCCCCCCCCCCCP(=O)(O)OCC	> 100	–
O=C1c2ccccc2C(=O)c2c1ccc(C1C(=O)c3ccccc3C1=O)c2-c1c(C2C(=O)c3ccccc3C2=O)ccc2c1C(=O)c1ccccc1C2=O	> 100	–
C=C1CC/C=C(\C)C(=O)C[C@@H]2[C@@H]1CC2(C)C	> 58.6	–
COc1ccc2oc(OC)c(CC=C(C)C)c(=O)c2c1C	> 100	–
Nc1nc(-c2ccc(F)cc2)c(-c2ccc3ncccc3n2)s1	> 25	13.1
